Experimental data: article PMC12040169 (PLOS Biology, 2025)
This is one part of the list.

The compounds below were run on T1, C. trachomatis L2/434/Bu expressing GFP (CTL2-GFP). Conditions: total inclusion area; 28.5 h, 10 µM; inhibitor.
T1 construct: L2/434/Bu GFP intracellular growth in HeLa cells
Design: species or system HeLa; C. trachomatis total inclusion area by high-content imaging, normalised to DMSO
Method in brief: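 Imaging read-out: GFP inclusions and Hoechst nuclei captured by high-content imaging after fixation. Inclusion area/number = chlamydial growth; nuclei count = host cell viability. MIC calculated per earlier method.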

Compared with Cc1ccc(C(=O)C(OC(=O)COc2ccccc2C)c2ccccc2)cc1C (centres unmarked) [CBK265512], Cc1cccc(CC(=O)N2CCC(Cc3ccccc3-c3ccccc3C)(C(N)=O)CC2)c1 [CBK285728] is lower in “% of control remaining” value: 130.392 for the first, 102.902 for the second.

Going from Cc1ccc(NC(=O)c2cnc(SCc3ccccn3)n(C)c2=O)cc1 [CBK287673] to Cc1ccc(-n2ncc3c(=O)n(CC(=O)Nc4ccccc4)cnc32)cc1C [CBK287539], the “% of control remaining” value falls from 97.4862 to 81.9034.

Going from Cc1nn(Cc2c(F)cccc2Cl)c(C)c1NC(=S)Nc1ccc(S(N)(=O)=O)cc1 [CBK267121] to Cc1ccc(-c2nn3c(C)nnc3c3ccccc23)cc1S(N)(=O)=O [CBK268342], the “% of control remaining” value rises from 91.6417 to 91.8455.

Going from O=C(NNS(=O)(=O)c1ccc([N+](=O)[O-])cc1)Nc1cccc(C(F)(F)F)c1 [CBK266871] to O=C(N/N=C/c1ccc(C(=O)O)cc1)C(=O)Nc1cccc(Br)c1 [CBK262185], the “% of control remaining” value falls from 103.917 to 98.8095.

Compared with Cc1nnc(SCC(=O)N2CCN(Cc3ccccc3)CC2)s1 [CBK267196], CCC(CC)C(=O)N1C[C@H]2CCc3nnc(-c4ccccc4)n3[C@H]2C1 [CBK283439] is lower in “% of control remaining” value: 135.632 for the first, 99.7488 for the second.

Going from CCOC(=O)CN1CCC(Oc2cncc(OCC3COc4ccccc4O3)n2)C1 (centres unmarked) [CBK084375] to c1ccc2c(c1)CCC2Oc1cncc(N2CCNCC2)n1 (centres unmarked) [CBK200005G], the “% of control remaining” value falls from 80.9017 to 78.8927.

First: CCC(CC)C(=O)N(C)c1c(C)nc2ccc(C(=O)NCc3ccc(OC)cc3)cn12 [CBK146501]
Second: COc1ccc(NC(=O)c2ccc3ncsc3c2)cc1 [CBK287368]
The “% of control remaining” value of the first is higher: 115.069 for the first, 82.8766 for the second.

Going from Cc1cc(-c2nccnc2NCc2ccccn2)cc(C)c1O [CBK036921] to Cc1cc(C)cc(Cn2cc(NCc3ccccc3)c(=O)[nH]c2=O)c1 [CBK288009], the “% of control remaining” value falls from 116.628 to 116.255.

Compared with CS(=O)(=O)CCNC(=O)c1cnc(-c2ccc(F)cc2)c(-c2ccco2)c1 [CBK037505], O=C(c1cnc(-c2ccccc2)c(-c2cccnc2)c1)N1CCC(S(=O)(=O)c2ccccc2)C1 (centres unmarked) [CBK036685] is lower in “% of control remaining” value: 126.902 for the first, 101.441 for the second.

First: COc1ccc(C2N(CCC(=O)O)CCOC23CCN(C(=O)c2ccc4ccccc4c2)CC3)cc1 (centres unmarked) [CBK115960]
Second: COc1ccccc1C(=O)CN1CCC2(CC1)OCCc1c2[nH]c2ccc(F)cc12 [CBK040238]
The “% of control remaining” value of the first is higher: 104.216 for the first, 96.8031 for the second.

Compared with Cc1ccc(S(=O)(=O)Nc2cc(SCC(=O)O)c(O)c3ccccc23)cc1 [CBK265708], COc1cncc(-c2cc(Nc3ccc(NS(=O)(=O)c4ccc(C)cc4)cc3)ncn2)c1 [CBK090988] is higher in “% of control remaining” value: 31.2618 for the first, 143.257 for the second.

First: C=C(C)CNC(=O)c1cc(-c2ccc(OC)cc2)cnc1NCC1CC1 [CBK076339]
Second: COc1ccc(OC)c(C(=O)c2coc3ccc(OCC(=O)O)cc23)c1 [CBK111288]
The “% of control remaining” value of the first is lower: 83.9354 for the first, 92.7555 for the second.

Going from CC(CN(C)C(=O)Cn1cccc(C(=O)NC2CCCCC2)c1=O)c1ccccc1 (centres unmarked) [CBK286066] to Cc1cc(=O)c2ccccc2n1CC(=O)N(C)CC1CCCCO1 (centres unmarked) [CBK306960], the “% of control remaining” value falls from 86.547 to 43.5516.

Going from Cn1ccnc1C1(O)CC2CCC(C1)N2C(=O)c1ccco1 (centres unmarked) [CBK284179] to O=C(NC(c1ccc(Cl)cc1)c1cccnc1)C1CCN(C(=O)c2ccco2)CC1 (centres unmarked) [CBK059708], the “% of control remaining” value rises from 65.7231 to 92.0573.

Compared with CCCCc1ccc(-c2cnc3nc(O)ccc3c2)cc1 [CBK081296], CCCc1n[nH]c(O)c1Cc1ccc(OCCCN(C)C)cc1 [CBK116249A] is higher in “% of control remaining” value: 72.2096 for the first, 87.4337 for the second.

Compared with Cc1ccc(NC(=O)COc2cccnc2)c(C)n1 [CBK200379], Cc1cc(C)n(CCNC(=O)N2CCC(Oc3cccnc3)CC2)n1 [CBK306719] is lower in “% of control remaining” value: 107.434 for the first, 66.6751 for the second.

Going from CC(Cc1cccs1)NC(=O)c1cccc(-n2cnnc2)c1 (centres unmarked) [CBK282443] to CC(C)Nc1cncc(Sc2cccc(C(=O)O)c2)n1 [CBK093582], the “% of control remaining” value falls from 123.126 to 80.1807.

First: CNC(=O)CCCc1[nH]nc(O)c1Cc1c(Cl)cccc1Cl [CBK085827]
Second: Nc1cc(-c2ccco2)nn(Cc2c(Cl)cccc2Cl)c1=O [CBK282880]
The “% of control remaining” value of the first is higher: 82.0141 for the first, 70.027 for the second.

Compared with C#CCNC(=O)CC[C@H]1CNC(=O)[C@@H]2[C@@H](CCN2Cc2nc3ccccc3n2C)N1C [CBK289018], CN1CCC(N(C)C(=O)NCCc2c[nH]c3ccccc23)C1 (centres unmarked) [CBK156012] is lower in “% of control remaining” value: 122.386 for the first, 101.968 for the second.

Compared with FC(F)(F)c1cnc(Sc2c[nH]nn2)c(Cl)c1 [CBK007252], COC(=O)c1sc2cc(C(F)(F)F)cnc2c1-c1ccccn1 [CBK089888] is lower in “% of control remaining” value: 89.8646 for the first, 84.4595 for the second.

Going from CN1C[C@@H](NC(=O)c2ccc3c(c2)OCO3)C[C@H]1c1nc(-c2ccccc2)no1 [CBK288876] to CN1CCN(c2ccccc2NC(=O)c2ccc3c(c2)OCCO3)CC1 [CBK268072], the “% of control remaining” value rises from 84.6978 to 93.5246.

Compared with O=C(O)CCn1c(SCCc2ccccc2)nc2ccccc21 [CBK262384], O=C(COc1cccc2ccccc12)Nc1ccc(O)cc1 [CBK266002] is higher in “% of control remaining” value: 90.2882 for the first, 104.571 for the second.

First: Cc1nc(C)c(-c2csc(CC(C)n3cc(Cl)cn3)n2)o1 (centres unmarked) [CBK304710]
Second: CC(=O)c1c(C)nc2nc(-c3ccncc3)nn2c1C [CBK288552]
The “% of control remaining” value of the first is lower: 44.5473 for the first, 88.8485 for the second.

Going from CCOC(=O)c1c(NC(=O)Cc2ccccc2)sc2c1CCC2 [CBK262309] to O=C(Cc1ccc(Br)cc1)Nc1cc(C(=O)O)cc(C(=O)O)c1 [CBK268228], the “% of control remaining” value rises from 85.1409 to 137.185.

Going from O=C(C1CC2C=CC1C21CC1)N1CCN(Cc2ccccn2)CC1 (centres unmarked) [CBK281443] to CC(C)c1ccc(CN2CCC3(CC2)CN(CCO)c2ccccc23)cc1 [CBK122708], the “% of control remaining” value falls from 104.19 to 77.9956.

Going from O=C(Nc1ccc(SC(F)F)cc1)c1cc(-c2ccncc2)nc2ccccc12 [CBK296092] to O=C(NNC(=O)c1cccnc1)c1ccc(NC(=O)c2ccco2)cc1 [CBK266792], the “% of control remaining” value falls from 103.34 to 80.1275.

Going from Cc1c(Cl)c([N+](=O)[O-])nn1CC(=O)N1CCN(C)CC1 [CBK261719] to CCOC(=O)N1CCN(C(=O)Nc2ccc3oc(=O)n(C)c3c2)CC1 [CBK306250], the “% of control remaining” value falls from 93.8868 to 71.9198.

Going from Cc1nc(NS(=O)(=O)c2cccc(Cl)c2C)sc1C(=O)O [CBK045561] to CC(=O)Nc1ccc(S(=O)(=O)Nc2nnc(CC(C)(C)C)s2)cc1 [CBK049910], the “% of control remaining” value rises from 91.2596 to 106.837.

Going from O=C(Nc1cc(N2CCNCC2)ncn1)c1ccccc1 [CBK004215T] to CCC#CC(=O)Nc1ccccc1N1CCCNCC1 [CBK024291T], the “% of control remaining” value falls from 112.835 to 97.1779.

First: CCOC(=O)CCCCCCC(=O)N1CCN(c2ccc(C(F)(F)F)cc2)CC1 [CBK091327]
Second: CC(NC(=O)c1ccc(-c2ccccc2F)s1)C(=O)N1CCCCC1 (centres unmarked) [CBK305740]
The “% of control remaining” value of the first is higher: 105.077 for the first, 62.3017 for the second.

First: CCOC(=O)N1CCC(NS(=O)(=O)c2ccc(Cl)c(Cl)c2Cl)CC1 [CBK045471]
Second: CN(Cc1ccncc1)C(=O)c1cccc(S(=O)(=O)NCC2CC2)c1 [CBK305365]
The “% of control remaining” value of the first is higher: 111.565 for the first, 70.7707 for the second.

Compared with Cc1cc(C(=O)O)c(C)cc1N [CBK022781], C=CCOc1ccc(Cl)cc1C(=O)NCc1c(C)n[nH]c1C [CBK282587] is higher in “% of control remaining” value: 45.7176 for the first, 97.2151 for the second.

First: COc1ccc(-c2cc3n[nH]c(=O)n3c(C)n2)cc1 [CBK288439]
Second: CC(C)Cn1c(=O)[nH]c2ncc(-c3cccc4cccnc34)nc21 [CBK064400]
The “% of control remaining” value of the first is higher: 91.7398 for the first, 71.6541 for the second.

Compared with Cc1cc(=O)oc2cc(NC(=S)NNC(=O)C(C)Sc3nc4ccccc4s3)ccc12 (centres unmarked) [CBK267056], Cc1ccc(NC(=O)N(Cc2ccc(-c3ccccc3)cc2)CC(C)(C)CN)cc1[N+](=O)[O-] [CBK002439C] is lower in “% of control remaining” value: 108.056 for the first, 26.977 for the second.

Compared with O=C(NCCNc1cnccn1)c1cc(F)cc(Br)c1 [CBK304554], COc1cccc(CN2CCCC(NC(=O)c3cn4ccsc4n3)C2)c1 (centres unmarked) [CBK307204] is higher in “% of control remaining” value: 27.4409 for the first, 94.7495 for the second.

First: COc1ccc(OC)c(S(=O)(=O)N2CCN(c3ncccn3)CC2)c1 [CBK008662]
Second: COc1cccc(CN2CCc3cc(OC)c(OC)cc3C2)c1 [CBK126441]
The “% of control remaining” value of the first is lower: 77.8008 for the first, 103.379 for the second.

First: Cc1cc(C(=O)CSc2nnc(CN3CCCC3)o2)c(C)n1C1CC1 [CBK306199]
Second: O=C(Nc1ccccc1N1CCOCC1)c1cccc(OCc2ccccc2)c1 [CBK270011]
The “% of control remaining” value of the first is lower: 66.9356 for the first, 103.878 for the second.

First: CN(C)S(=O)(=O)NC1CC(C)(C)Cc2c1cnn2-c1ccccc1 (centres unmarked) [CBK307533]
Second: Sc1nncn1NCc1cc(Cl)ccc1OCc1ccccc1 [CBK265752]
The “% of control remaining” value of the first is lower: 71.9906 for the first, 95.3455 for the second.

Going from O=C(Cc1n[nH]c(=O)[nH]c1=O)N/N=C/c1cccc(Br)c1 [CBK263086] to O=C(O)CCCC(=O)NCc1cccnc1 [CBK261708], the “% of control remaining” value falls from 113.659 to 81.6713.

Compared with Cc1ccc(S(=O)(=O)N[C@H]2CO[C@H]3[C@@H]2OC[C@H]3O)cc1 [CBK289477], N#CCCN(Cc1ccco1)C(=O)c1ccc(OCC2CC2)cc1 [CBK304051] is lower in “% of control remaining” value: 117.37 for the first, 58.6206 for the second.
